The full ranking holds about 81,000 sequences; the median of “one-hybrid fitness for binding NBS DNA” is about -0.1, and the highest 2% start at about 0.36. The list shows a part of the results.

This note sets out measurements from a collection of fitness landscapes (doi:10.1016/j.celrep.2020.107928).

Sequences and labels used below:
B1: Caulobacter ParB omega fusion; a variant is named by its letters at X, in order, B8GW30 (parent)
chain: MESVVVGEPGMSEGRRGLGRGLSALLGEVDAAPAQAPGEQLGGSREAPIEILQRNPDQPRRTFREEDLEDLSNSIREKGVLQPILVRPSPDTAGEYQIVAGERAWRAAQRAGLKTVPIMVRELDDLAVLEIGIIENVQRADLNVLEEALSYKVLMEKFERTQENIAQTIGKSXSHVANXMRLLXLPDEVQSYLVSGELTAXHARAIAAAADPVALAKQIIEGGLSVRETEALARKAPNLSAGKSKGGRPPRVKDTDTQALESDLSSVLGLDVSIDHRGSTGTLTITYATLEQLDDLCNRLTRGI

In the assay the parent is B1. The assay can be described thus: one-hybrid fitness for binding NBS DNA (the Noc-binding site; scaled: cognate 1, non-cognate 0); higher = stronger binding. The note with it: with NBS DNA site. A digest of the protocol:
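Values were rescaled so that cognate is 1 and non-cognate is 0. Each is a fitness, the log change in a variant's read ratio to wild type from Illumina reads of plasmids before and after selection, with three replicate libraries pooled and variants under 10 reads dropped. Selection of the Caulobacter ParB libraries, four specificity codons randomised, used E. coli USO with a HIS3 reporter, site 19 bp from the promoter, on M9-minus-histidine with 0.1 mM IPTG and 5 mM 3-AT for 48 hours at 37°C.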
As for ATVQ, the “one-hybrid fitness for binding NBS DNA” value was not above 0.2.

Regarding RFSY, the “one-hybrid fitness for binding NBS DNA” value was not above 0.2.

As to KQSW, the “one-hybrid fitness for binding NBS DNA” value was not above 0.2.

In the case of PDPV, the “one-hybrid fitness for binding NBS DNA” value was not above 0.2.

Turning to CWIG, the “one-hybrid fitness for binding NBS DNA” value worked out at 0.406.

With NGWN, the “one-hybrid fitness for binding NBS DNA” value is not above 0.2.

Take QQYY: the “one-hybrid fitness for binding NBS DNA” value was not above 0.2.

Consider NIRE, for which the “one-hybrid fitness for binding NBS DNA” value is not above 0.2.

For SHMG, the “one-hybrid fitness for binding NBS DNA” value is not above 0.2.

For LVTA, the “one-hybrid fitness for binding NBS DNA” value is not above 0.2.

Take HWFG: the “one-hybrid fitness for binding NBS DNA” value is not above 0.2.

In the case of CFPE, the “one-hybrid fitness for binding NBS DNA” value was not above 0.2.

As to RQFC, the “one-hybrid fitness for binding NBS DNA” value was not above 0.2.

TDEM: the “one-hybrid fitness for binding NBS DNA” value was not above 0.2.

On to DRKG, for which the “one-hybrid fitness for binding NBS DNA” value is not above 0.2.

Take PAAK: the “one-hybrid fitness for binding NBS DNA” value was not above 0.2.

On to WVCC, for which the “one-hybrid fitness for binding NBS DNA” value is not above 0.2.

With ATTW, the “one-hybrid fitness for binding NBS DNA” value was not above 0.2.

As to EKTI, the “one-hybrid fitness for binding NBS DNA” value was not above 0.2.

Take YPTS: the “one-hybrid fitness for binding NBS DNA” value was not above 0.2.

On to ARAV, for which the “one-hybrid fitness for binding NBS DNA” value is not above 0.2.

In the case of CSRM, the “one-hybrid fitness for binding NBS DNA” value is not above 0.2.

As for HIWY, the “one-hybrid fitness for binding NBS DNA” value is not above 0.2.

In the case of FYAC, the “one-hybrid fitness for binding NBS DNA” value is not above 0.2.

Take GIGT: the “one-hybrid fitness for binding NBS DNA” value is not above 0.2.

As to PTLN, the “one-hybrid fitness for binding NBS DNA” value was not above 0.2.

Consider WMVV, for which the “one-hybrid fitness for binding NBS DNA” value is not above 0.2.

On to QIND, for which the “one-hybrid fitness for binding NBS DNA” value was not above 0.2.

VVIC: the “one-hybrid fitness for binding NBS DNA” value was not above 0.2.

For SYRH, the “one-hybrid fitness for binding NBS DNA” value was not above 0.2.

As to MEAG, the “one-hybrid fitness for binding NBS DNA” value was not above 0.2.

With DSDK, the “one-hybrid fitness for binding NBS DNA” value was not above 0.2.

Turning to PHYL, the “one-hybrid fitness for binding NBS DNA” value was not above 0.2.

With RREF, the “one-hybrid fitness for binding NBS DNA” value is not above 0.2.

In the case of GAHC, the “one-hybrid fitness for binding NBS DNA” value was not above 0.2.

Consider RRMK, for which the “one-hybrid fitness for binding NBS DNA” value stood at 0.208.

As to IETG, the “one-hybrid fitness for binding NBS DNA” value is not above 0.2.

For the variant NGYD, the “one-hybrid fitness for binding NBS DNA” value was not above 0.2.

As to VYAL, the “one-hybrid fitness for binding NBS DNA” value was not above 0.2.

On to SWTG, for which the “one-hybrid fitness for binding NBS DNA” value is not above 0.2.

Turning to SPMV, the “one-hybrid fitness for binding NBS DNA” value is not above 0.2.

For ARSS, the “one-hybrid fitness for binding NBS DNA” value is not above 0.2.

With YSMR, the “one-hybrid fitness for binding NBS DNA” value is not above 0.2.

Take GFLT: the “one-hybrid fitness for binding NBS DNA” value is not above 0.2.

With GQNG, the “one-hybrid fitness for binding NBS DNA” value was not above 0.2.

As to VFWT, the “one-hybrid fitness for binding NBS DNA” value was not above 0.2.

Regarding LMSS, the “one-hybrid fitness for binding NBS DNA” value was not above 0.2.

Consider ALSL, for which the “one-hybrid fitness for binding NBS DNA” value is not above 0.2.

With LGRG, the “one-hybrid fitness for binding NBS DNA” value is not above 0.2.

For NQMS, the “one-hybrid fitness for binding NBS DNA” value was not above 0.2.

With KKWT, the “one-hybrid fitness for binding NBS DNA” value was not above 0.2.

KKKV: the “one-hybrid fitness for binding NBS DNA” value is not above 0.2.

As to FNGE, the “one-hybrid fitness for binding NBS DNA” value is not above 0.2.

With LRTT, the “one-hybrid fitness for binding NBS DNA” value was not above 0.2.

Turning to IFRR, the “one-hybrid fitness for binding NBS DNA” value was not above 0.2.

On to LCLE, for which the “one-hybrid fitness for binding NBS DNA” value was not above 0.2.

With RQKE, the “one-hybrid fitness for binding NBS DNA” value is not above 0.2.

For the variant DSLM, the “one-hybrid fitness for binding NBS DNA” value is not above 0.2.

For the variant EYTV, the “one-hybrid fitness for binding NBS DNA” value was not above 0.2.

PETW: the “one-hybrid fitness for binding NBS DNA” value is not above 0.2.

In the case of IPYW, the “one-hybrid fitness for binding NBS DNA” value was not above 0.2.

Turning to RFTF, the “one-hybrid fitness for binding NBS DNA” value was not above 0.2.

Consider DSQD, for which the “one-hybrid fitness for binding NBS DNA” value is not above 0.2.

VKCF: the “one-hybrid fitness for binding NBS DNA” value was not above 0.2.

With ETHC, the “one-hybrid fitness for binding NBS DNA” value was not above 0.2.

As for NYDL, the “one-hybrid fitness for binding NBS DNA” value was not above 0.2.

In the case of SKLS, the “one-hybrid fitness for binding NBS DNA” value is not above 0.2.

Take HRTW: the “one-hybrid fitness for binding NBS DNA” value was not above 0.2.

For NPYM, the “one-hybrid fitness for binding NBS DNA” value is not above 0.2.

Turning to AVGT, the “one-hybrid fitness for binding NBS DNA” value was not above 0.2.

Regarding VKLY, the “one-hybrid fitness for binding NBS DNA” value was not above 0.2.

As to QTMF, the “one-hybrid fitness for binding NBS DNA” value was not above 0.2.

Take PSTL: the “one-hybrid fitness for binding NBS DNA” value was not above 0.2.

Regarding GSLE, the “one-hybrid fitness for binding NBS DNA” value is not above 0.2.

For the variant PYKW, the “one-hybrid fitness for binding NBS DNA” value is not above 0.2.

Regarding VDQR, the “one-hybrid fitness for binding NBS DNA” value was not above 0.2.

Regarding NYKW, the “one-hybrid fitness for binding NBS DNA” value is not above 0.2.

Regarding TSEC, the “one-hybrid fitness for binding NBS DNA” value was not above 0.2.

Turning to PLDP, the “one-hybrid fitness for binding NBS DNA” value is not above 0.2.

As to TYGG, the “one-hybrid fitness for binding NBS DNA” value is not above 0.2.

TMGV: the “one-hybrid fitness for binding NBS DNA” value was not above 0.2.

For AVSS, the “one-hybrid fitness for binding NBS DNA” value was not above 0.2.

In the case of LQDA, the “one-hybrid fitness for binding NBS DNA” value was not above 0.2.

With HDPW, the “one-hybrid fitness for binding NBS DNA” value was not above 0.2.

With NRIS, the “one-hybrid fitness for binding NBS DNA” value was not above 0.2.

Regarding ALMA, the “one-hybrid fitness for binding NBS DNA” value was not above 0.2.

Turning to HYAT, the “one-hybrid fitness for binding NBS DNA” value was not above 0.2.

As to EDGG, the “one-hybrid fitness for binding NBS DNA” value was not above 0.2.

As for TTEE, the “one-hybrid fitness for binding NBS DNA” value was not above 0.2.

For the variant YQCG, the “one-hybrid fitness for binding NBS DNA” value is not above 0.2.

For the variant CHAY, the “one-hybrid fitness for binding NBS DNA” value is not above 0.2.

As to FHVY, the “one-hybrid fitness for binding NBS DNA” value was not above 0.2.

On to LHSV, for which the “one-hybrid fitness for binding NBS DNA” value was not above 0.2.

In the case of KNTH, the “one-hybrid fitness for binding NBS DNA” value is not above 0.2.

In the case of DVPE, the “one-hybrid fitness for binding NBS DNA” value is not above 0.2.

For the variant FAGQ, the “one-hybrid fitness for binding NBS DNA” value is not above 0.2.

Take AVKP: the “one-hybrid fitness for binding NBS DNA” value is not above 0.2.

Consider PTFI, for which the “one-hybrid fitness for binding NBS DNA” value was not above 0.2.

Consider WMAQ, for which the “one-hybrid fitness for binding NBS DNA” value is not above 0.2.

With MDFK, the “one-hybrid fitness for binding NBS DNA” value was not above 0.2.

AHLM: the “one-hybrid fitness for binding NBS DNA” value was not above 0.2.

QGAC: the “one-hybrid fitness for binding NBS DNA” value is not above 0.2.

For the variant EGFG, the “one-hybrid fitness for binding NBS DNA” value was not above 0.2.

As for AQNV, the “one-hybrid fitness for binding NBS DNA” value was not above 0.2.

Regarding TMVL, the “one-hybrid fitness for binding NBS DNA” value is not above 0.2.

Consider KKTS, for which the “one-hybrid fitness for binding NBS DNA” value was not above 0.2.

As for RYKE, the “one-hybrid fitness for binding NBS DNA” value is not above 0.2.

Turning to QEKE, the “one-hybrid fitness for binding NBS DNA” value was not above 0.2.

For the variant LQQS, the “one-hybrid fitness for binding NBS DNA” value was not above 0.2.

For the variant QATP, the “one-hybrid fitness for binding NBS DNA” value was not above 0.2.

As to NCYL, the “one-hybrid fitness for binding NBS DNA” value was not above 0.2.

On to GADT, for which the “one-hybrid fitness for binding NBS DNA” value was not above 0.2.

Turning to IFPE, the “one-hybrid fitness for binding NBS DNA” value was not above 0.2.

For ANYS, the “one-hybrid fitness for binding NBS DNA” value was not above 0.2.

For the variant LDAL, the “one-hybrid fitness for binding NBS DNA” value was not above 0.2.

On to QVRG, for which the “one-hybrid fitness for binding NBS DNA” value is not above 0.2.

For the variant AMNH, the “one-hybrid fitness for binding NBS DNA” value was not above 0.2.

Take RGHW: the “one-hybrid fitness for binding NBS DNA” value was not above 0.2.

With EMFG, the “one-hybrid fitness for binding NBS DNA” value is not above 0.2.

Turning to DLSA, the “one-hybrid fitness for binding NBS DNA” value was not above 0.2.

Take WRWT: the “one-hybrid fitness for binding NBS DNA” value is not above 0.2.

For the variant RMPG, the “one-hybrid fitness for binding NBS DNA” value was not above 0.2.

As to QWPA, the “one-hybrid fitness for binding NBS DNA” value was not above 0.2.

With GTYG, the “one-hybrid fitness for binding NBS DNA” value was not above 0.2.

Take VGVT: the “one-hybrid fitness for binding NBS DNA” value was not above 0.2.

Consider EKMM, for which the “one-hybrid fitness for binding NBS DNA” value is not above 0.2.

HVYC: the “one-hybrid fitness for binding NBS DNA” value was not above 0.2.

For the variant HPKS, the “one-hybrid fitness for binding NBS DNA” value was not above 0.2.

As for HSAW, the “one-hybrid fitness for binding NBS DNA” value is not above 0.2.

For the variant FAKD, the “one-hybrid fitness for binding NBS DNA” value is not above 0.2.

As to LKAA, the “one-hybrid fitness for binding NBS DNA” value is not above 0.2.

In the case of CALA, the “one-hybrid fitness for binding NBS DNA” value was not above 0.2.

NRND: the “one-hybrid fitness for binding NBS DNA” value is not above 0.2.

On to MPRL, for which the “one-hybrid fitness for binding NBS DNA” value was not above 0.2.

For SCFR, the “one-hybrid fitness for binding NBS DNA” value was not above 0.2.

Take HPGW: the “one-hybrid fitness for binding NBS DNA” value is not above 0.2.

As for HSNL, the “one-hybrid fitness for binding NBS DNA” value was not above 0.2.

Consider HKSR, for which the “one-hybrid fitness for binding NBS DNA” value is not above 0.2.

On to LARN, for which the “one-hybrid fitness for binding NBS DNA” value is not above 0.2.

Turning to AKTT, the “one-hybrid fitness for binding NBS DNA” value is not above 0.2.

KTLG: the “one-hybrid fitness for binding NBS DNA” value was not above 0.2.

As to TLFR, the “one-hybrid fitness for binding NBS DNA” value was not above 0.2.

As to VHLC, the “one-hybrid fitness for binding NBS DNA” value was not above 0.2.

For RSTS, the “one-hybrid fitness for binding NBS DNA” value amounted to 0.433.

As for ARRC, the “one-hybrid fitness for binding NBS DNA” value was not above 0.2.

Consider RSHY, for which the “one-hybrid fitness for binding NBS DNA” value is not above 0.2.

As to SLYD, the “one-hybrid fitness for binding NBS DNA” value is not above 0.2.

As for FTTE, the “one-hybrid fitness for binding NBS DNA” value was not above 0.2.

Take ISQM: the “one-hybrid fitness for binding NBS DNA” value was not above 0.2.

As for ERPL, the “one-hybrid fitness for binding NBS DNA” value is not above 0.2.

In the case of RSLV, the “one-hybrid fitness for binding NBS DNA” value is not above 0.2.

Regarding SMYC, the “one-hybrid fitness for binding NBS DNA” value was not above 0.2.

As to VSSC, the “one-hybrid fitness for binding NBS DNA” value was not above 0.2.
